Results: PubChem BioAssay AID493208 (National Center for Advancing Translational Sciences (NCATS), 2011)
In all, about 44,000 compounds went through this assay and about 340 (0.77%) were called active. Inconclusive results (about 5%) are left out. Calls come from the whole dose curve; as a rule, active = well fitted inhibition curve with a large enough effect; inconclusive = small, poorly fitted or top-dose-only effect; inactive = flat fitted curve, though single readings scatter. The list shows a part of the results.

experiment: Acumen qHTS Assay for Inhibitors of the mTORC1 Signaling Pathway in MEF (Tsc2-/-, p53-/-) Cells: Sytravon; conditions: phospho-rpS6 immunofluorescence/PI, 24 h; series mostly up to 38.3 µM; activity change, negative = inhibition: at the top concentration;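 note: plate controls were DMSO for no effect and rapamycin for full effect; nearly all actives have a fitted effect of over 50% in size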
In short: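 Compounds act on Tsc2-/-, p53-/- fibroblasts carrying an empty vector for 24 h before fixation and dual staining for phospho-S6 and DNA (propidium iodide). Values are percentages of cells above a rapamycin-defined pS6/PI threshold.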

Activity change, negative = inhibition, inactive:
CCNC(=O)c1cc2n(n1)CCCN(Cc1ccc(C)cc1)C2=O 3.19%
O=C(C1CCN(c2ncnc3c2nc2n3CCCCC2)CC1)N1CCN(c2ccc(Cl)cc2)CC1 2.07%
Cc1nn(C(=O)c2cccc(F)c2)c(C)c1S(=O)(=O)N1CCOCC1 -16.4%
Cc1ccc(NC(=O)c2c(NC(=O)c3ccccc3Cl)sc3c2CCC3)cc1 -1.63%
COc1ccc(Nc2cc(C(=O)NC3CCCC3)c3ccccc3n2)cc1 0.0743%
COc1ccc(C2C=C(c3ccc(Br)cc3)Nc3nnnn32)c(OC)c1 (stereo unspecified) -10.3%
COc1ccccc1CNc1nc2c(S(=O)(=O)c3ccccc3)nnn2c2ccc(Cl)cc12 -9.53%
O=C(CCSCc1ccc(Cl)cc1)NCc1ccc(F)cc1Cl 11.8%
CS(=O)(=O)N1CCc2cc(C(=O)N3CCN(c4ccccc4F)CC3)ccc21 0.533%
O=C(CSc1nccn1Cc1ccc(F)cc1)NCc1ccc(F)cc1 -16.7%
CN1CCN(C(=O)Cn2ncc3c4ccccc4n(Cc4ccc(Cl)cc4)c3c2=O)CC1 0.728%
Cc1cc(C)c(NC(=O)c2c(C)nn(-c3ccc(F)cc3)c2-n2cccc2)c(C)c1 -8.44%
Cc1ccccc1NC(=O)Cn1nnc(C(=O)NCCc2ccccc2)c1N 4.06%
O=C(NC1CCCCC1)c1ccc(CSc2nc3ccncc3n2Cc2ccc(F)cc2)cc1 -1.31%
CCc1nn2c(=O)c(S(=O)(=O)Nc3ccc(Br)cc3F)c(C)nc2s1 4.57%
CC(=O)c1cccc(NC(=O)Cn2nc(C(F)(F)F)c3c2CCC3)c1 4.39%
NC(=O)c1nn2c(C(F)(F)F)cc(-c3ccc(Br)cc3)nc2c1Cl -2.13%
CSc1nc(=O)c2c(n1C)NC(=O)CC2c1cc(F)cc(F)c1 (stereo unspecified) -3.24%
Cc1ccc(C)c(N(C)C(=O)Cc2c(C(=O)O)[nH]c3ccc(Cl)cc23)c1 -8.39%
CC(C)(C)CC(C)(C)c1ccc(OCC(=O)Nc2ccc(S(=O)(=O)Nc3ncccn3)cc2)cc1 1.23%
COc1ccc(C2C(C(=O)Nc3ccc(C)cc3C)=C(C)Nc3nc(SCc4cccc(C)c4)nn32)c(OC)c1 (stereo unspecified) -16.9%
CN(C)c1ccc(Nc2nc3ccccc3n3nnnc23)cc1 -0.899%
COc1ccccc1-c1nn2c(=O)cc(CN3CCN(C(=O)/C=C/c4ccccc4)CC3)nc2s1 8.36%
COc1cccc(CNC(=O)CN2C(=O)N(c3cccc(Cl)c3)S(=O)(=O)c3ccccc32)c1OC 0.413%
COc1ccc(N2CCN(S(=O)(=O)c3ccc(-c4cnc(C5CC5)o4)cc3)CC2)cc1 0%
CC1=C(C(=O)Nc2ccc(C)cc2C)C(c2ccc(Br)cc2)n2ncc(C(=O)Nc3cccc(C)c3)c2N1 (stereo unspecified) -0.658%
COc1ccccc1CNC(=O)CSc1nc(=O)[nH]c2c1CCC2 -3.68%
CCOc1ccc(NC(=O)Cn2c(=O)n(CCCCC(=O)NCc3ccc4c(c3)OCO4)c(=O)c3ccccc32)cc1 -8.77%
CCN(CC)c1ccc(-n2nc3cc(C)c(NC(=O)c4ccccc4C)cc3n2)c(C)c1 0.101%
CCc1ccc(S(=O)(=O)NCc2nc3cccnc3n2Cc2cccc(OC)c2)cc1 -5.25%
CCCCCn1c(CNC(=O)c2ccccc2)nc2ccccc21 7.33%
Cc1c(Cl)cccc1Nc1nn2c(=O)c3ccc(C(=O)NCCC4=CCCCC4)cc3nc2s1 -2.52%
Cc1cc(C)c(S(=O)(=O)N2CCN(Cc3ccc4c(c3)OCO4)CC2)cc1C -3.18%
COc1ccc(S(=O)(=O)c2nnn(-c3ccc(C(C)C)cc3)c2C)cc1 -3.62%
Cc1ccc(-n2c(=O)c3c(C)c(C)sc3n(Cc3ccc(F)cc3Cl)c2=O)cc1C -19.9%
COc1ccc(CCNC(=O)Cc2c(C)c3cc4c(C)coc4cc3oc2=O)cc1OC 3.72%
Oc1ccc(-c2nc3ccc(Cl)cn3c2Nc2ccc3c(c2)OCO3)cc1 -12%
CCOc1ccc(C2C(=O)N(C3CCCCC3)CC(=O)N2CCc2ccccc2)cc1OC (stereo unspecified) -6.9%
COc1cc(C(=O)NCc2nc3cccnc3n2Cc2ccc(C)cc2)cc(OC)c1OC -2.67%
Cc1cc(C)c(NS(=O)(=O)c2ccc(-c3coc(C)n3)cc2)c(C)c1 -8.08%
CC(=O)c1ccc(NC(=O)Cn2ncc3c4ccccc4n(Cc4ccccc4)c3c2=O)cc1 -5.58%
O=C(NCc1ccc(Cl)cc1)C1CCN(S(=O)(=O)c2ccccc2)CC1 -0.0978%
COc1ccc(N(C(=O)c2ccccc2)S(=O)(=O)c2ccc3c(c2)n(C)c(=O)n3C)cc1 0.233%
O=C1CC(=O)Nc2cc(S(=O)(=O)N3CCOc4ccc(Cl)cc43)ccc2N1 -1.27%
O=C(c1ccc2c(c1)N(Cc1cccc(Cl)c1)C(=O)c1ccccc1S2=O)N1CCN(c2cccc(C(F)(F)F)c2)CC1 (stereo unspecified) -1.47%
Cc1ccc(N(C)C(=O)CN2C(=O)CCc3cc(S(=O)(=O)N4CCOCC4)ccc32)cc1 10.4%
O=C(NC1CC(=O)N(c2ccc(F)cc2)C1)c1ccc2c(c1)OCO2 (stereo unspecified) -6.17%
O=C(Cn1c(=O)n2nc(-c3cccc(F)c3)nc2c2ccccc21)N1CCN(c2ccc(F)cc2)CC1 -1.55%
Cn1c(=O)c2c(ncn2Cc2ccc(Cl)cc2)n(C)c1=O -19.5%
CCN1CCN(C(c2ccccc2Cl)c2c(O)cc(C)n(Cc3ccco3)c2=O)CC1 (stereo unspecified) 5.68%
Cc1cccc(Cn2nnc3c(=O)[nH]c(C4CCCN(C(=O)c5ccccc5Cl)C4)nc32)c1 (stereo unspecified) -3.72%
CCc1ccc(NC(=O)Cn2c(=O)n(-c3cc(OC)c(OC)c(OC)c3)c(=O)c3ccccc32)cc1 3.88%
CC(NC(=O)c1ccc(F)cc1)c1nc2ccccc2[nH]1 (stereo unspecified) 1.9%
COc1ccccc1NC(=O)c1cn(-c2ccccc2)nc1-c1ccccc1 0.175%
Cc1cc(C(=O)C(=O)Nc2nncs2)c(C)n1-c1ccc(Cl)cc1 -6.43%
Cc1cccc(N2CCN(C(=O)c3noc4c3CCCCC4)CC2)c1C 4.47%
N#Cc1nc(/C=C/c2ccc(F)cc2)oc1NCc1ccc(F)cc1 -5.06%
COc1ccc(N2CCN(C(=O)CNS(=O)(=O)c3ccc(Br)s3)CC2)cc1 -11.2%
COc1ccc(OC)c(NC(=O)CN2CCCN(Cc3ccccc3Cl)S2(=O)=O)c1 -10.4%
O=C(CNC(=O)c1ccc(F)cc1)OCc1cc(=O)n2nc(C3CCCCC3)sc2n1 -1.72%
CCOc1ccccc1C(=O)NCc1nc2cccnc2n1Cc1ccc(C)cc1 -3.71%
